Source: the supplement of paper PMC12217912
This is one part of the list. The full chains were built here from the parent and the listed change. Values near 0.05 are background.

B1: TEV protease; numbered along this chain (parent)
chain: MGESLFKGPRDYNPISSSICHLTNESDGHTTSLYGIGFGPFIITNKHLFRRNNGTLVVQSLHGVFKVKDTTTLQQHLVDGRDMIIIRMPKDFPPFPQKLKFREPQREERICLVTTNFQTKSMSSMVSDTSCTFPSGDGIFWKHWIQTKDGQCGSPLVSTRDGFIVGIHSASNFTNTNNYFTSVPKNFMELLTNQEAQQWVSGWRLNADSVLWGGHKVFMVKPEEPFQPVKEATQL

Variants of: B1
Experiment: raw area under fraction-flipped curve 0-4 h after induction (AUC4h, not background-subtracted), DNA-recorder readout of cleavage of the substrate (dimensionless); higher = more cleavage of the substrate by the protease variant
Conditions: temperature: 34 °C; time window: 0-4 h after rhamnose induction
Method: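 In vivo DNA recorder in E. coli TOP10(DE3) ΔrhaA at 34 °C. Each TEVp single-site mutant (parent TEVp 0) is paired with a single-site variant of the 7-mer TEVs (canonical ENLYFQ|S). The substrate sits between flexible linkers in a Bxb1-sfGFP-TEVs-SsrA fusion, so cleavage stabilises Bxb1 and speeds flipping of a recombination array, read by NGS. The value is the raw area under the fraction-flipped curve over 0-4 h after rhamnose induction (AUC4h), with ≥20 reads per time point. It is not background-subtracted; inactive controls average about 0.047.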
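Note: Bxb1 expression induced with 0.2% (w/v) L-rhamnose at OD600 near 0.5, cultures sampled hourly, flipped fraction per protease–substrate barcode pair counted by paired-end Illumina sequencing.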

Variant	area with substrate EALYFQS	area with substrate ECLYFQS	area with substrate EELYFQS	area with substrate EFLYFQS	area with substrate EGLYFQS	area with substrate EHLYFQS	area with substrate EILYFQS	area with substrate EKLYFQS	area with substrate ELLYFQS	area with substrate EMLYFQS	area with substrate EPLYFQS	area with substrate EQLYFQS	area with substrate ERLYFQS	area with substrate ESLYFQS	area with substrate ETLYFQS	area with substrate EVLYFQS	area with substrate EWLYFQS	area with substrate EDLYFQS	area with substrate EYLYFQS
E224W	0.108	0.0871	0.0992	0.0984	0.099	0.0674	0.0904	0.126	0.0947	0.124	0.105	0.124	0.109	0.0898	0.123	0.085	0.0854		
E224Y	0.117	0.0933	0.126			0.0996	0.0901	0.093	0.0661	0.129	0.0988	0.085		0.0831		0.0772		0.119	
F226C	0.162	0.101	0.0926	0.143	0.103		0.0955	0.133	0.109			0.145	0.122	0.141	0.107	0.122	0.103	0.155	0.122
A232C	0.119	0.0794	0.109		0.0655		0.0893			0.144		0.0659		0.0944					
A232F	0.111	0.0438					0.0918	0.1										0.126	
A232K	0.164	0.133					0.075			0.129	0.0081			0.127	0.153				
A232M	0.0886	0.0538			0.111		0.075		0.0943				0.112	0.121			0.0988	0.124	
A232S	0.147				0.0881		0.106		0.128			0.153		0.118					0.123
A232T	0.142	0.138	0.0937	0.0918			0.112	0.0079		0.13			0.109			0.0645			0.129
unchanged	0.121	0.103	0.12	0.108	0.101	0.111	0.0963	0.107	0.0926	0.113	0.119	0.119	0.104	0.105	0.11	0.0984	0.0967	0.127	0.108
G8A		0.13	0.125		0.1					0.124			0.1	0.108					
S16G		0.114	0.109		0.0985		0.097		0.108		0.121			0.122	0.121		0.108	0.102	0.121
N24R		0.0831	0.079		0.0711		0.0769	0.0685	0.0606		0.075	0.0657	0.064	0.0637		0.0729	0.0775	0.0624	0.0751
N24Y		0.14			0.096	0.0986	0.0966	0.103	0.122	0.101		0.101	0.101	0.0937		0.106	0.069		0.103
S32D		0.0954	0.103		0.0867	0.0873	0.0904	0.0777	0.0378	0.0938	0.0914	0.0927	0.0997	0.0923		0.0943	0.0807	0.0932	
